Test results: article PMC4336329 (PLoS ONE, 2015)
The campaign covered roughly 310,000 compounds. About 2,200 (0.71%) showed an effect of 50% or more. Effects have a minus sign here. The list shows a part of the results.

Molecular target: human ether-à-go-go-related gene (hERG) potassium channel (human, UniProt Q12809)
Test: primary screen, population patch clamp on CHO cells stably expressing hERG

human ether-à-go-go-related gene (hERG) potassium channel, sequence (Q12809 whole entry, looked up): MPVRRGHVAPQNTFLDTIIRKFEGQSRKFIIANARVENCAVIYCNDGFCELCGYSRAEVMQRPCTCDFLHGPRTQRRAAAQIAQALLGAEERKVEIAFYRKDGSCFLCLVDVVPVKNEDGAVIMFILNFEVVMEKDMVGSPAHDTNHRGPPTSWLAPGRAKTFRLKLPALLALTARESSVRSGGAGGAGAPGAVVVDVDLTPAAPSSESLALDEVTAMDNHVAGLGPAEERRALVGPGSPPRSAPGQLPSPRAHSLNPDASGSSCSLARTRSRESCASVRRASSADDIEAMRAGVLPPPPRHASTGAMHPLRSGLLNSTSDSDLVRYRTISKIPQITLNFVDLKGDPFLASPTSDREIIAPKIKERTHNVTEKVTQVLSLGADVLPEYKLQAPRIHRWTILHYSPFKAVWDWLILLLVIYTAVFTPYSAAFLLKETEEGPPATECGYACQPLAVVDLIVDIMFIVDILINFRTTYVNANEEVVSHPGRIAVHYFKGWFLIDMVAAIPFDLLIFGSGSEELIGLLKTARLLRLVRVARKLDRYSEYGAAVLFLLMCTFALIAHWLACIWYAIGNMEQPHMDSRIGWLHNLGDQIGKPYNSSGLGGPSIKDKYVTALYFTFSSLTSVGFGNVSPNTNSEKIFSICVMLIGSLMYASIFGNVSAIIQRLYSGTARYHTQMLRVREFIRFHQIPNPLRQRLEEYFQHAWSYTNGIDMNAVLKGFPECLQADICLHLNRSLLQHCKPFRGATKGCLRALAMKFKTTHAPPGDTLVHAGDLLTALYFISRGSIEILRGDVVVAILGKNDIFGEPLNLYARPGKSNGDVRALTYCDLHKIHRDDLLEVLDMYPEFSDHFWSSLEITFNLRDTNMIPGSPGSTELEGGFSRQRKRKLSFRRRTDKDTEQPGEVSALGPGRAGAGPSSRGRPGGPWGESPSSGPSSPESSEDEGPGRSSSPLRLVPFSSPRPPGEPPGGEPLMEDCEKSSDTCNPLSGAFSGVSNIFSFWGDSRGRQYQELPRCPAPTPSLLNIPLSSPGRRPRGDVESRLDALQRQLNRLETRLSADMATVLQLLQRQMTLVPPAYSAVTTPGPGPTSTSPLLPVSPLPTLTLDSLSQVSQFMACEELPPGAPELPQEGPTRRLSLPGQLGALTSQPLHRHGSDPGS

Point of comparison: COCCCNC(=O)c1ccc2c3c(onc13)-c1ccccc1C2=O, “hERG current change (%, negative = inhibition) at 1uM” value 11%. Against it:
- O=C(c1ccccc1Cl)N1CCc2ccccc2C1 — lower, 3.39%
- Cc1ccc(C)n1-c1cc([N+](=O)[O-])ccc1-n1ccnc1 — lower, -0.734%
- C[C@]12CC[C@@H]3c4ccc(OS(=O)(=O)[O-])cc4CC[C@H]3[C@@H]1CCC2=O.[K+] — higher, 19.5%
- CSc1ccc(NC(=O)N2CC(C)OC(C)C2)cc1 (stereo not drawn) — lower, 9.14%
- CCOC(=O)C1CCN(C(=O)Nc2cccc(Cl)c2)CC1 — higher, 14.7%
- Cc1ccccc1Nc1nc(CSc2nnnn2-c2ccccc2)cs1 — lower, 3.8%
- COc1ccc(CN2CCN(CCC(C)C)C(CCO)C2)cc1Cn1cncn1 (stereo not drawn) — lower, 10.9%
- CCOc1ccccc1CN1CCNC(=O)C1CC(=O)NC1CCCCCC1 (stereo not drawn) — lower, 5.32%
- CCN1C(=O)/C(=C2/Sc3ccccc3N2CC)SC1=S — higher, 17.7%
- COc1ccc(C(=O)Oc2ccc(C(=S)N3CCCC3)cc2)cc1OC — higher, 15%
- COc1ccc(C(O)c2nc3ccccc3n2C)cc1OC (stereo not drawn) — lower, 5.28%
- CCN1CCN(c2cc(=O)n(C3CCCCC3)c(=O)[nH]2)CC1 — lower, 10.8%
- CSc1nnnn1-c1ccc(C(=O)O)cc1 — higher, 19.6%
- CCn1cc(S(=O)(=O)c2ccc(Cl)cc2)c(=O)c2cc(OC)ccc21 — lower, 5.94%
- Cc1ccc2c(COC(=O)c3ccccc3OC(F)F)cc(=O)oc2c1 — higher, 18.1%
- O=C(CN1CCOC1=O)N1CCCC(Nc2ccc(F)c(F)c2)C1 (stereo not drawn) — higher, 15.2%
- COc1ccc(C2C(C(=O)c3ccco3)=C(O)C(=O)N2CCc2ccccc2)cc1OC (stereo not drawn) — lower, 1.82%
- O=C(NCC(c1cccnc1)N1CCN(c2ccccc2)CC1)c1ccco1 (stereo not drawn) — higher, 11.6%
- NC(=O)c1ccccc1NC(=O)CC12CC3CC(CC(C3)C1)C2 — the same, 11%
- C/C=C/C(=O)OCC(=O)Nc1ccccc1Br — higher, 13%
- CCCNC(=O)CN(C)S(=O)(=O)c1c(C)cc(C)cc1C — lower, 10.1%
- O=C(NCc1ccc2c(c1)OCO2)Nc1cccc2ccccc12 — lower, -5.84%
- COc1ccccc1CNC(=O)CCCC(=O)n1nc(C)c2ccccc21 — higher, 12.2%
- O=c1ccc2cc([N+](=O)[O-])c(CCO)cc2o1 — lower, -0.769%
- CN1CCN(C(=O)c2ccc3ccccc3c2)CC1 — lower, -5.36%
- Cc1ccc(C2=NN(CCC#N)C(=O)CO2)cc1 — higher, 12.1%
- CCOc1ccc(C(=S)NC2CCCCC2)cc1OC — higher, 11.1%
- Cc1ccccc1Nc1nc(N)nc(CSc2nnc(-c3ccccc3)n2C)n1 — lower, 2.19%
- Cc1cc(NC(=O)CCC(=O)N(CC(=O)NC2CCCC2)Cc2ccc3c(c2)OCO3)no1 — higher, 14.7%
- O=C(CN1CCN(CCC(=O)Nc2ccccc2F)CC1)Nc1ccc(Cl)cc1 — lower, -84.3%
- CCOC(=O)C(C)Sc1nc2c(c(-c3cccs3)c1C#N)CCC2 (stereo not drawn) — lower, 8.31%
- COc1ccc(OC)c(CNC(=O)C(C)n2nc(C)c3c(C)n(-c4ccccc4)nc3c2=O)c1 (stereo not drawn) — lower, -0.182%
- Fc1cccc(Cl)c1CSc1nnc(CNc2ccccc2)o1 — lower, 7.21%
- O=C(CSc1nnc(-c2ccccc2O)o1)Oc1ccc(Br)cc1 — lower, 9.68%
- Cc1c(C(=O)N/N=C/c2cccc(O)c2)nnn1-c1nonc1N — lower, 1.25%
- CC(OC(=O)CN1C(=O)c2ccccc2C1=O)C(=O)NC1CCCCC1 (stereo not drawn) — lower, 10.7%
- CCCCn1c(N)c(N(CC)C(=O)c2ccco2)c(=O)[nH]c1=O — lower, 10.9%
- COc1ccc(CNC(=O)Cc2csc(NC(=O)Nc3ccccc3OC)n2)cc1 — higher, 16%
- CCC(C)(C)NC(=O)C(c1ccc(F)cc1)N(Cc1ccco1)C(=O)c1snc(C(N)=O)c1N (stereo not drawn) — lower, 1.36%
- Cc1ccc(/C=N/n2c(-c3ccc(Cl)cc3)n[nH]c2=S)s1 — lower, 9.23%
- CC(=O)c1cc(OC(=O)c2ccncc2)ccc1OC(=O)c1ccncc1 — higher, 16.4%
- COc1ccc(C(=O)CSc2nnc(-c3ccccn3)n2Cc2ccco2)cc1 — lower, 3.95%
- COc1ccc(-n2nnnc2SCC(=O)Nc2nnc(C)s2)cc1 — lower, 8.85%
- Cc1c(C(=O)OCC(=O)NCCc2ccc(S(N)(=O)=O)cc2)oc2ccccc12 — higher, 18.4%
- COc1ccc(Cc2noc(CN(C)Cc3cccc(-n4cccn4)c3)n2)cc1OC — lower, 5.74%
- CCC(C(=O)NCCCN1CCN(C)CC1)n1nc(C)n2c(cc3occc32)c1=O (stereo not drawn) — lower, 6.8%
- Cn1c(=Nc2ccccc2)sc2ccccc21 — lower, -1.41%
- O=C(CN(Cc1ccc(Cl)cc1)C(=O)CNS(=O)(=O)c1ccc(F)cc1)NCC1CCCO1 (stereo not drawn) — higher, 14.9%
- CCOC(=O)c1ccc(NC(=O)C2CC2)cc1 — lower, -10.3%
- O=C1c2ccccc2C(=O)N1CCc1csc(-c2cccc(Cl)c2)n1 — lower, -10.3%
- O=[N+]([O-])c1ccc(Sc2nc3ccccc3o2)c([N+](=O)[O-])c1 — higher, 12.1%
- CC(C)(C)N1C(=O)c2ccccc2NC(=O)N1Cc1ccc(Br)cc1 — lower, 10.3%
- CC(C)c1nc(SCC(=O)Nc2ccc([N+](=O)[O-])cc2Br)n[nH]1 — lower, -3%
- O=C(Nc1ccccc1Cl)C1CCCN(S(=O)(=O)c2ccc(-n3cnnn3)cc2)C1 (stereo not drawn) — higher, 13%
- O=C(Nc1ccncc1)C1CCN(S(=O)(=O)c2ccc(Cl)c(C(F)(F)F)c2)CC1 — lower, -5.92%
- COc1ccc(CNC(=O)C2CCN(S(=O)(=O)c3cc(OC)ccc3OC)CC2)cc1 — lower, 3.55%
- O=C(CSc1nnnn1C1CCCC1)Nc1ccc2c(c1)OCCO2 — higher, 16.8%
- CC(/C=N/Nc1ccc2nncn2n1)=C\c1ccccc1 — lower, -11.4%
- CN1CCN(C2=C(Cl)C(=O)N(c3cccc(Cl)c3)C2=O)CC1 — lower, 8.88%
- CC(C)(C)C(=O)Nc1nc(-c2ccccc2)ns1 — lower, 0.661%
- O=C(CN1C(=O)NC2(CCc3ccccc32)C1=O)c1ccc(Cl)cc1 (stereo not drawn) — lower, 0.347%
- c1ccc(N2CCN(c3cnc4ccccc4n3)CC2)cc1 — lower, 1.57%
- O=c1[nH]c(=O)n(CCc2ccccc2)c(O)c1C=NCCCn1ccnc1 — lower, 3.79%
- COC(=O)c1cc(C(=O)NC(C)(C)CC(C)(C)C)cc([N+](=O)[O-])c1 — lower, 1.99%
- COc1ccc(OC)c(NC(=O)C(CC(=O)O)Cc2ccc(Cl)cc2)c1 (stereo not drawn) — lower, 10.8%
- COC(=O)Cc1[nH]c(=S)[nH]c1C(=O)OC — lower, 9.65%
- COC(C/C=C\[C@@H](O)[C@H](C)OCc1ccccc1)OC — higher, 24%
- CCCCn1c(N)c(N(CC)C(=O)c2ccc(C)cc2)c(=O)[nH]c1=O — higher, 17.8%
- CN(C)c1ccc(C(C(=O)NCc2ccccc2)N(Cc2ccco2)C(=O)c2snc(C(N)=O)c2N)cc1 (stereo not drawn) — lower, 8.48%
- COc1ccc(OC)c(NC(=O)NNC(=O)c2cc3occc3[nH]2)c1 — higher, 19.5%
- CCOc1ccccc1N1C(=O)c2ccc(C(=O)Nc3cccnc3)cc2C1=O — lower, 5.52%
- Cc1ccccc1CC(=O)NC1CCN(C)CC1 — higher, 11.5%
- O=C(NCCN1CCOCC1)/C(=C\c1ccc(Br)cc1)NC(=O)c1cccs1 — lower, -54%
- COc1cccc(-c2csc(N3CCN(CC(=O)Nc4ccc5c(c4)OCO5)CC3)n2)c1 — lower, 5.4%
- Cc1[nH]c(=O)[nH]c(=O)c1S(=O)(=O)N1CCCC(C(=O)NCCc2ccc(Cl)cc2)C1 (stereo not drawn) — lower, 2.35%
- COc1cccc(Oc2ncnc(N)c2[N+](=O)[O-])c1 — higher, 15.2%
- O=C(CN1CCN(S(=O)(=O)c2cc(C(F)(F)F)ccc2Cl)CC1)N1CCc2ccccc2C1 — lower, 7.11%
- Nc1ccc(N2CCN(c3ccccc3)CC2)c(F)c1 — lower, 6.04%
- CCN(CC)CCN(CC(=O)N(C1CCCCC1)C1CCCCC1)C(=O)c1ccco1.O=C(O)C(=O)O — higher, 17.1%
- COc1cc(C(=O)OCC(=O)Nc2ccc(SC(F)F)cc2)cc(OC)c1OC — lower, 10.8%
- O=C(CCc1ccccc1)NNC(=S)NC(=O)c1ccccc1 — lower, -2.1%
- OC1CCCCC1Sc1nc2ccccc2s1 (stereo not drawn) — lower, 9.95%
- COc1ccc(Cl)cc1NC(=O)CN(C)C(=O)Cn1c(=O)oc2ccccc21 — lower, 3.36%
- COc1ccc(Cn2nnnc2C(CC(C)C)N2CCN(c3ccccc3)CC2)cc1 (stereo not drawn) — lower, 3.21%
- COc1ccccc1N(CC(=O)N1CCCC1)S(=O)(=O)c1ccc(C)cc1 — higher, 13.1%
- O=C(Nc1cccc(OC(F)(F)F)c1)c1ccc(Br)o1 — lower, -12.9%
- Cl.N[C@@H](CCC(=O)O)C(=O)O — lower, 10.8%
- Oc1ccccc1/C=N/N1CCCCC1 — lower, 8.95%
- O=C(NCc1ccc(F)cc1)C1CCN(S(=O)(=O)N2CCCCC2)CC1 — lower, -1.55%
